Laboratory results taken from article PMC4336329 (PLoS ONE, 2015).
About 2,200 (0.71%) of roughly 310,000 compounds showed an effect of 50% or more. Effects have a minus sign here. This is one part of the list.

Target: human ether-à-go-go-related gene (hERG) potassium channel (human, UniProt Q12809)
Assay: primary screen, population patch clamp on CHO cells stably expressing hERG

Chain of human ether-à-go-go-related gene (hERG) potassium channel (Q12809 whole entry, looked up): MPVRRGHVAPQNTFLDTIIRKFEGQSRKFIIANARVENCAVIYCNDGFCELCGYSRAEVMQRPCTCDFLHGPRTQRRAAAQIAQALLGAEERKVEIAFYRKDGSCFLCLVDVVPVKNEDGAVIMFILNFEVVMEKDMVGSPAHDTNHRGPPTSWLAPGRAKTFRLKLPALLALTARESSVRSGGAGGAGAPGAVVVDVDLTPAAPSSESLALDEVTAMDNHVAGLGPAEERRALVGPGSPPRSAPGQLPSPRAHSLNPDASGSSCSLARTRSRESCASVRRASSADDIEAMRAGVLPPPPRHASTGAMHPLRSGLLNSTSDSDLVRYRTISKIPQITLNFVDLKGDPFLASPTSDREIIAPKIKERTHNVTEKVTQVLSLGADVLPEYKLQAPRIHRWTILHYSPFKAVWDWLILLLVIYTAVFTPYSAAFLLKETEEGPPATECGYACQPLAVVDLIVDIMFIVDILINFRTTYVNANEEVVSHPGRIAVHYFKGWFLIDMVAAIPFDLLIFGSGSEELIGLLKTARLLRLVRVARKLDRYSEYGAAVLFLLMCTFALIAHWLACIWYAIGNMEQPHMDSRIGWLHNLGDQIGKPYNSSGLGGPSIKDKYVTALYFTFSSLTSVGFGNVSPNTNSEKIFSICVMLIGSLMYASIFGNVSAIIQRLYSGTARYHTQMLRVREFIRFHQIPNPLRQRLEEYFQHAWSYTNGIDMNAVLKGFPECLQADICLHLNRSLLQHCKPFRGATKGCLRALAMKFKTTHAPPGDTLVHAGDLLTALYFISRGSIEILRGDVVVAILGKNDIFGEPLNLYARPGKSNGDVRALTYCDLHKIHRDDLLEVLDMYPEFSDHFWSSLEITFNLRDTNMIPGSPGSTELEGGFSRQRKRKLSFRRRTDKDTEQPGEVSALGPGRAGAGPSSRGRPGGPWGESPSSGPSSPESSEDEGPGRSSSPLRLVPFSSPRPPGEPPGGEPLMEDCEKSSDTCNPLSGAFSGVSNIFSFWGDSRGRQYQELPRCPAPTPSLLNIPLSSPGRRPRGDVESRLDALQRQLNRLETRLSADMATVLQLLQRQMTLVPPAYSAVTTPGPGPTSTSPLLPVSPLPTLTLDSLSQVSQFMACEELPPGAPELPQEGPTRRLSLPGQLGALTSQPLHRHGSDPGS

`Cn1nnnc1SCC(=O)Nc1nc(-c2ccccc2)c(-c2ccccc2)o1` was tested. Which “hERG current change (%, negative = inhibition) at 1uM” value did it give?
Its value is 2.31%.

Which “hERG current change (%, negative = inhibition) at 1uM” value does the source give for `Cc1ccccc1-c1nc2ccccc2[nH]1` here?
Its value is -4.77%.

With `Cc1c(CC(=O)N2CCN(C(=O)C3COc4ccccc4O3)CC2)c(=O)oc2cc(O)ccc12` (stereo not shown) as the compound, how does the “hERG current change (%, negative = inhibition) at 1uM” value read?
Its value is 5.7%.

For `CCN1CCN(C(=O)c2ccccc2N(Cc2ccccc2)S(=O)(=O)c2ccc(C)cc2)CC1`, which “hERG current change (%, negative = inhibition) at 1uM” value is on record?
The value was -14.6%.

For `O=C(CSc1nc(=O)n(Cc2ccccn2)c2c1CCC2)Nc1ccc(F)cc1F`, which “hERG current change (%, negative = inhibition) at 1uM” value is on record?
Its value is 6.01%.

For `CCN1C(=O)C(=O)N(CC(=O)NC(C)CCc2ccccc2)C1=O` (stereo not shown), which “hERG current change (%, negative = inhibition) at 1uM” value is on record?
The value was 5.87%.

Which “hERG current change (%, negative = inhibition) at 1uM” value does the source give for `CCCC(C(=O)Nc1ccc(S(=O)(=O)N2CCCC2)cc1)c1ccccc1` (stereo not shown) here?
The value was 13.9%.

For `COC(=O)C(C)N(C#N)c1nc(C)cc(C)n1` (stereo not shown), which “hERG current change (%, negative = inhibition) at 1uM” value is on record?
The value was 5.58%.

For `COCCN1Cc2cccc(C(=O)Nc3cccc(C)c3C)c2C1=O`, which “hERG current change (%, negative = inhibition) at 1uM” value is on record?
Its value is 1.38%.

How did the “hERG current change (%, negative = inhibition) at 1uM” value turn out when `O=C(Nc1ccc(N2CCOCC2)cc1)Nc1cnsn1` was run?
The value was 2.13%.

With `COc1ccc2c(c1OC)C(=O)N1N=C(c3ccccc3)CC21` (stereo not shown) as the compound, how does the “hERG current change (%, negative = inhibition) at 1uM” value read?
The value was 3.26%.

For `CC(C)CNc1cc(=O)n(C)c(=O)n1C`, which “hERG current change (%, negative = inhibition) at 1uM” value is on record?
Its value is 12.1%.

For `O=C(NCC1CCCO1)C(c1ccncc1)N(Cc1ccc(F)cc1)C(=O)CN1C(=O)c2ccccc2S1(=O)=O` (stereo not shown), which “hERG current change (%, negative = inhibition) at 1uM” value is on record?
Its value is -51.2%.

With `Cc1ccc(NC(=O)CSc2nccn2Cc2ccco2)c(C)c1` as the compound, how does the “hERG current change (%, negative = inhibition) at 1uM” value read?
Its value is 13.4%.

With `Cc1ccc(S(=O)(=O)Nc2c(O)c3ccccc3oc2=O)cc1C` as the compound, how does the “hERG current change (%, negative = inhibition) at 1uM” value read?
Its value is 14.6%.

How did the “hERG current change (%, negative = inhibition) at 1uM” value turn out when `O=C(NN1C(=O)c2ccccc2C1=O)C1CCCCC1` was run?
The value was 2.91%.

With `CCS(=O)(=O)Nc1ccc2c(c1)N(C(C)=O)c1ccccc1CC2` as the compound, how does the “hERG current change (%, negative = inhibition) at 1uM” value read?
Its value is 0.669%.

Which “hERG current change (%, negative = inhibition) at 1uM” value does the source give for `CCCOc1ccc(C2=CC(=O)C[C@H](c3ccc(OC)cc3)C2)cc1` here?
The value was 20.2%.

With `CSc1nnc(C)c(=O)n1COC(=O)COc1ccccc1` as the compound, how does the “hERG current change (%, negative = inhibition) at 1uM” value read?
The value was 14.4%.

`O=C(Cn1[nH]c(=O)c2ccccc2c1=O)OCC(=O)c1ccc(F)cc1` was tested. Which “hERG current change (%, negative = inhibition) at 1uM” value did it give?
Its value is 15.2%.

For `CN(CC(=O)NC(=O)NCc1ccccc1)Cc1cccc(Cl)c1Cl`, which “hERG current change (%, negative = inhibition) at 1uM” value is on record?
The value was 8.14%.

How did the “hERG current change (%, negative = inhibition) at 1uM” value turn out when `O=c1cc(CN2CCN(c3ccccc3)CC2)nc2scc(-c3ccccc3)n12` was run?
The value was 7.25%.

`O=C(Nc1ccccc1)N1CCC(n2c(=O)[nH]c3ccccc32)CC1` was tested. Which “hERG current change (%, negative = inhibition) at 1uM” value did it give?
Its value is 3.01%.

For `CN(C)S(=O)(=O)c1cccc(C(=O)OCC(=O)Nc2ccccc2OC(F)F)c1`, which “hERG current change (%, negative = inhibition) at 1uM” value is on record?
Its value is 13.9%.

How did the “hERG current change (%, negative = inhibition) at 1uM” value turn out when `COC(=O)C(CC(C)C)NC(=O)c1ccc(F)cc1` (stereo not shown) was run?
The value was 13%.

With `CCC(=O)Nc1cc2c(C)cc(=O)oc2cc1C` as the compound, how does the “hERG current change (%, negative = inhibition) at 1uM” value read?
Its value is -0.915%.

How did the “hERG current change (%, negative = inhibition) at 1uM” value turn out when `C/C(=C\c1ccccc1)C(=O)n1nnc2ccccc21` was run?
Its value is 6.05%.

For `COc1ccc(CC(=O)N2CCN(c3ccc(C4=NNC(=O)CC4C)cc3)CC2)cc1` (stereo not shown), which “hERG current change (%, negative = inhibition) at 1uM” value is on record?
Its value is 8.78%.

Which “hERG current change (%, negative = inhibition) at 1uM” value does the source give for `CCOC(=O)C1=C(COC(=O)/C=C/c2cccc(OC)c2)NC(=O)NC1C` (stereo not shown) here?
Its value is 6.4%.

With `CCCN(CCC)S(=O)(=O)c1cccc(-c2csc(C)n2)c1` as the compound, how does the “hERG current change (%, negative = inhibition) at 1uM” value read?
The value was -2.79%.

How did the “hERG current change (%, negative = inhibition) at 1uM” value turn out when `CC(=NCCN1CCOCC1)c1c(O)n(C2CCCCC2)c(=O)[nH]c1=O` was run?
The value was -3.28%.

`Cc1cc(NC(=O)Cc2c(F)cccc2Cl)no1` was tested. Which “hERG current change (%, negative = inhibition) at 1uM” value did it give?
The value was 10.9%.

For `NS(=O)(=O)c1ccc(NC(=O)c2ccc(S(=O)(=O)N3CCOCC3)o2)cc1`, which “hERG current change (%, negative = inhibition) at 1uM” value is on record?
Its value is 13.9%.

With `COc1cccc(C(=O)NCC(=O)OCc2ccc(F)cc2Cl)c1` as the compound, how does the “hERG current change (%, negative = inhibition) at 1uM” value read?
The value was 13.5%.

Which “hERG current change (%, negative = inhibition) at 1uM” value does the source give for `O=C(NCCN1CCOCC1)c1cccs1` here?
Its value is 3.28%.

`COc1ccc(Br)cc1-c1noc(-c2ccccc2)n1` was tested. Which “hERG current change (%, negative = inhibition) at 1uM” value did it give?
The value was 16.4%.

Which “hERG current change (%, negative = inhibition) at 1uM” value does the source give for `CCc1cccc(NC(=S)N(CCOC)C(C)c2ccco2)c1` (stereo not shown) here?
The value was 10.9%.

With `COc1ccc(NC(=O)C2CC(c3ccc(Cl)cc3)=NO2)cc1OC` (stereo not shown) as the compound, how does the “hERG current change (%, negative = inhibition) at 1uM” value read?
Its value is 5.9%.

How did the “hERG current change (%, negative = inhibition) at 1uM” value turn out when `COc1ccc(NS(=O)(=O)c2cccc(NC(=O)C3=NN(c4ccccc4)C(=O)CC3)c2)cc1` was run?
The value was 4.1%.

`O=S(=O)(NC1CCCCC1NCc1ccco1)c1ccccc1` (stereo not shown) was tested. Which “hERG current change (%, negative = inhibition) at 1uM” value did it give?
Its value is 8.15%.

For `c1cc(SSc2ccncc2)ccn1`, which “hERG current change (%, negative = inhibition) at 1uM” value is on record?
Its value is 12.9%.

`CC(=O)NNC(=O)c1csc(Cc2c(Cl)sc3ccc(Cl)cc23)n1` was tested. Which “hERG current change (%, negative = inhibition) at 1uM” value did it give?
The value was 7.13%.

For `CN(C)S(=O)(=O)c1ccc(C(=O)Nc2ccc(Cl)cc2)cc1`, which “hERG current change (%, negative = inhibition) at 1uM” value is on record?
Its value is 8.1%.

`Cc1occc1-c1nnc(SCC(=O)NC2CCCC2)n1-c1ccccc1` was tested. Which “hERG current change (%, negative = inhibition) at 1uM” value did it give?
The value was 0.492%.

`CC1CN(S(=O)(=O)c2ccc(CN3C(=O)c4cccnc4C3=O)cc2)c2ccccc2O1` (stereo not shown) was tested. Which “hERG current change (%, negative = inhibition) at 1uM” value did it give?
The value was 12.8%.

With `CCOC(=O)N1CCN(S(=O)(=O)c2ccc(F)c(C(=O)Nc3ccc(C(C)C)cc3)c2)CC1` as the compound, how does the “hERG current change (%, negative = inhibition) at 1uM” value read?
The value was -3.89%.

For `CCCS(=O)(=O)N1CCN(CCCc2ccccc2)CC1.O=C(O)C(=O)O`, which “hERG current change (%, negative = inhibition) at 1uM” value is on record?
Its value is -1.25%.

`COc1ccccc1CNC(=O)c1ccoc1C` was tested. Which “hERG current change (%, negative = inhibition) at 1uM” value did it give?
Its value is -1.81%.

`CC(=O)Nc1ccc(C(=O)N2CCc3cc4c(cc3C2C)OCCCO4)cc1` (stereo not shown) was tested. Which “hERG current change (%, negative = inhibition) at 1uM” value did it give?
Its value is 10.5%.

`COc1cccc(C(=O)NCC(=O)N/N=C/c2c(C)[nH]c3ccccc23)c1` was tested. Which “hERG current change (%, negative = inhibition) at 1uM” value did it give?
Its value is 11.8%.

For `CCNc1nc(NCC)nc(SCCOc2ccc(C)cc2)n1`, which “hERG current change (%, negative = inhibition) at 1uM” value is on record?
Its value is 3.98%.

`Cc1cccc(OCC(=O)OCC(=O)N2CCN(C(=O)c3ccco3)CC2)c1C` was tested. Which “hERG current change (%, negative = inhibition) at 1uM” value did it give?
The value was -6.12%.

`O=C(O)c1ccccc1C(=O)OCc1c(-c2ccccc2)ncc2ccccc12` was tested. Which “hERG current change (%, negative = inhibition) at 1uM” value did it give?
The value was 12.5%.

`COC(=O)c1ccc(NC(=O)NC(=O)Oc2ccccc2)cc1` was tested. Which “hERG current change (%, negative = inhibition) at 1uM” value did it give?
Its value is 3.44%.

Which “hERG current change (%, negative = inhibition) at 1uM” value does the source give for `COc1ccccc1-n1c(SCC(=O)Nc2ccc(C)cc2)nc(O)cc1=O` here?
The value was 15.7%.

For `CCOC(=O)c1cnc2ccc(OCC)cc2c1NCc1cccnc1.Cl`, which “hERG current change (%, negative = inhibition) at 1uM” value is on record?
Its value is -75.3%.

Which “hERG current change (%, negative = inhibition) at 1uM” value does the source give for `CC(=O)Nc1ccc(NC(=O)CSc2nccn2Cc2ccco2)cc1` here?
Its value is -14.7%.

How did the “hERG current change (%, negative = inhibition) at 1uM” value turn out when `CCN(CC)S(=O)(=O)c1ccc(C(=O)NCCc2ccccn2)cc1` was run?
The value was 10.9%.
